Assay results reported in patent US7563592B2, “Alizarin-based chromogenic substrates, their uses and composition containing same” (Biomerieux, S.A., priority 1999, dated 2009).

How the values were obtained:
Design in all cases: key: —: the sign “−” signifies no coloration
[1] = tested on: Bacillus thuringiensis 072; test: β-glucosidase detection in API strip wells (Example 6)
Method: (§1) Into a well of an API (Registered trademark, bioMérieux, France) strip, 3 μl of a mixture of Alizarin-2-β-D-glucoside (0.12 g/l) and Ammoniacal iron citrate (0.05 g/l) were introduced and then dried. A control well containing a final concentration of 0.4 g/l of 6-Chloro-3-indolyl-β-D-glucoside was set up in parallel. Then 50 μl of Columbia base were added to both of these wells which were subsequently inoculated with 100 μl of a bacterial suspension (density=2 McFarland). After 4 and 24 hours of incubation at 37° C., the color generated in the wells was recorded.

[2] = tested on: Staphylococcus aureus 062; test: as above
Method: as §1

Listeria seeligeri 080 = test: as above; conditions: 0.4 g/l; 4 H
Method: as §1

Proteus mirabilis 008 = test: Comparison of glucoside substrates in semi-solid Columbia medium (Example 7)
Method: (§2) To Columbia base, were added, either: • Alizarin-2-β-D-glucoside at 0.05 g/l plus Ammoniacal iron citrate at 0.05 g/l, • Alizarin-1-β-D-glucoside at 0.05 g/l and 0.1 g/l plus, for both concentrations, Ammoniacal iron citrate at 0.05 g/l, • 6-Chloro-3-indolyl-β-D-glucoside at 0.15 g/l without any Ammoniacal iron citrate.
(§3) Petri dishes were prepared using these four media (20 ml of medium per dish).

[3] = tested on: Staphylococcus epidermidis 024; test: as above
Method: as §2, §3

Escherichia coli 115 = test: as above
Method: as §2, §3

[4] = 0.15 g/l, no iron citrate, 18 H
[5] = 0.15 g/l, no iron citrate, 24 H
[6] = 0.15 g/l, no iron citrate, 48 H
[7] = 0.12 g/l + iron citrate 0.05 g/l, 4 H
[8] = 0.05 g/l + iron citrate 0.05 g/l, 18 H
[9] = 0.05 g/l + iron citrate 0.05 g/l, 24 H
[10] = 0.05 g/l + iron citrate 0.05 g/l, 48 H
[11] = 0.1 g/l + iron citrate 0.05 g/l, 18 H
[12] = 0.1 g/l + iron citrate 0.05 g/l, 24 H
[13] = 0.1 g/l + iron citrate 0.05 g/l, 48 H

OC[C@H]1O[C@@H](Oc2c[nH]c3cc(Cl)ccc23)[C@H](O)[C@@H](O)[C@@H]1O [6-Chloro-3-indolyl-β-D-glucoside, reference compound]
—: Color observed ([1]; 0.4 g/l, 4 H) | Color observed ([1]; 0.4 g/l, 24 H) | Color observed ([2]; 0.4 g/l, 4 H) | Color observed ([2]; 0.4 g/l, 24 H) | Color observed (Listeria seeligeri 080) | Color (Proteus mirabilis 008; [4]) | Intensity (Proteus mirabilis 008; [4]) | Color (Proteus mirabilis 008; [5]) | Intensity (Proteus mirabilis 008; [5]) | Color (Proteus mirabilis 008; [6]) | Intensity (Proteus mirabilis 008; [6]) | Color [3, 4] | Intensity [3, 4] | Color [3, 5] | Intensity [3, 5] | Color [3, 6] | Intensity [3, 6] | Color (Escherichia coli 115; [4]) | Intensity (Escherichia coli 115; [4]) | Color (Escherichia coli 115; [5]) | Intensity (Escherichia coli 115; [5]) | Color (Escherichia coli 115; [6]) | Intensity (Escherichia coli 115; [6])

O=C1c2ccccc2C(=O)c2c1ccc(O[C@@H]1O[C@H](CO)[C@@H](O)[C@H](O)[C@H]1O)c2O [Alizarin-2-β-D-glucoside]
—: Color observed [1, 7] | Color observed [2, 7] | Color observed ([2]; 0.12 g/l + iron citrate 0.05 g/l, 24 H) | Color (Proteus mirabilis 008; [8]) | Intensity (Proteus mirabilis 008; [8]) | Color (Proteus mirabilis 008; [9]) | Intensity (Proteus mirabilis 008; [9]) | Color (Proteus mirabilis 008; [10]) | Intensity (Proteus mirabilis 008; [10]) | Color [3, 8] | Intensity [3, 8] | Color [3, 9] | Intensity [3, 9] | Color [3, 10] | Intensity [3, 10] | Color (Escherichia coli 115; [8]) | Intensity (Escherichia coli 115; [8]) | Color (Escherichia coli 115; [9]) | Intensity (Escherichia coli 115; [9]) | Color (Escherichia coli 115; [10]) | Intensity (Escherichia coli 115; [10])

O=C1c2ccccc2C(=O)c2c1ccc(O)c2O[C@@H]1O[C@H](CO)[C@@H](O)[C@H](O)[C@H]1O [1-Alizarin1-β-D-glucoside, Alizarin-1-β-D-glucoside]
—: Color (Proteus mirabilis 008; [8]) | Intensity (Proteus mirabilis 008; [8]) | Color (Proteus mirabilis 008; [9]) | Intensity (Proteus mirabilis 008; [9]) | Color (Proteus mirabilis 008; [10]) | Intensity (Proteus mirabilis 008; [10]) | Color (Proteus mirabilis 008; [11]) | Intensity (Proteus mirabilis 008; [11]) | Color (Proteus mirabilis 008; [12]) | Intensity (Proteus mirabilis 008; [12]) | Color (Proteus mirabilis 008; [13]) | Intensity (Proteus mirabilis 008; [13]) | Color [3, 8] | Intensity [3, 8] | Color [3, 9] | Intensity [3, 9] | Color [3, 10] | Intensity [3, 10] | Color [3, 11] | Intensity [3, 11] | Color [3, 12] | Intensity [3, 12] | Color [3, 13] | Intensity [3, 13] | Color (Escherichia coli 115; [8]) | Intensity (Escherichia coli 115; [8]) | Color (Escherichia coli 115; [9]) | Intensity (Escherichia coli 115; [9]) | Color (Escherichia coli 115; [10]) | Intensity (Escherichia coli 115; [10]) | Color (Escherichia coli 115; [11]) | Intensity (Escherichia coli 115; [11]) | Color (Escherichia coli 115; [12]) | Intensity (Escherichia coli 115; [12]) | Color (Escherichia coli 115; [13]) | Intensity (Escherichia coli 115; [13])
